# Data: PubChem BioAssay (Tox21)
# The inconclusive results got no clear call from the source; some entries with a clear call stand among them for comparison. For some assays here: No potency is given beside an inconclusive call; the fits are too rough. The source made the active and inactive calls. Unless noted, the call rests on the fitted dose curve; in most records, active means well fitted curve in the direction sought with a large enough effect in the repeat runs; inconclusive means weak or mixed curves; inactive means no such curve, though single readings can be large; an effect the other way counts as inactive or inconclusive.
# Experiments:
# [1] = target: Estrogen receptor (Homo sapiens) (UniProt P03372); experiment: qHTS assay to identify small molecule antagonists of the estrogen receptor alpha (ER-alpha) signaling pathway (AID 743069; active means well fitted curve in the direction sought with a large enough effect in the signal ratio in the repeat runs, not every such curve was filed as active; inconclusive means weak or mixed curves, or effect the other way; inactive means no such curve, though single readings can be large or run the other way; the % refers to the signal ratio; further: on the % scale 0 is the no-effect control and ±100 the full control effect); settings: HEK293 ER-alpha-UAS-bla, beta-lactamase ratio, antagonist mode; activity, negative = inhibition: at 69.4 µM (top of the series) unless noted
# Method in brief: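 A 17beta-estradiol challenge was applied right after compound transfer to ER-alpha-UAS-bla HEK293 cells previously kept in charcoal-stripped serum. Plates stood 18 hr at 37C and 5% CO2; fluorescence was read following 2 hr FRET substrate loading at room temperature.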
# [2] = target: Peroxisome proliferator-activated receptor delta (Homo sapiens) (UniProt Q03181); experiment: qHTS assay to identify small molecule agonists of the peroxisome proliferator-activated receptor delta (PPARd) signaling pathway (AID 743212; calls by dose curve;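 further: HEK293H cells with PPARd UAS beta-lactamase reporter GeneBLAzer system; on the % scale 0 is the no-effect control and ±100 the full control effect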); settings: HEK293H PPARd-UAS-bla, beta-lactamase FRET ratio, 17 h; activation: at 62.6 µM (top of the series) unless noted
# Method in brief: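 Beta-lactamase reporter read by fluorescence (LiveBLAzer B/G FRET, 2 h, room temperature). Test agents, in DMSO, incubated at 37 C with PPARd-bla HEK293H cells.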
# [3] = qHTS assay to identify small molecule antagonists of the estrogen receptor alpha (ER-alpha) signaling pathway using the BG1 cell line (AID 743080; calls by dose curve;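 further: BG1 cells stimulated with 17beta-estradiol alongside compound; nearly all actives have a fitted effect of over 25% in size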; further: potency means the concentration at half of the fitted maximal effect; on activity change, negative = inhibition: on the % scale 0 is the no-effect control and ±100 the full control effect); settings: BG1Luc4E2 ERE-luciferase antagonist mode, luminescence; activity change, negative = inhibition: at 70.3 µM (top of the series) unless noted
# Method in brief: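 After 5 days in phenol-red-free 10% charcoal-stripped FBS medium, BG1-Luc-4E2 cells were seeded, left 24 h at 37 C, co-treated with compounds and 17beta-estradiol for 21.5 h, then assayed for viability and luciferase.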
# [4] = qHTS assay to identify small molecule antagonists of the sonic hedgehog signaling (Shh) pathway - cell viability counter screen (AID 1259367); further: nearly all actives have a fitted effect of over 55% in size; further: potency means the concentration at half of the fitted maximal effect
# Method in brief: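 Conditioned medium drove Shh signaling in 3T3 Gli1-Luc cells exposed to compounds at 37C and 5% CO2. Viability was determined from CellTiter-Fluor fluorescence, with reagent incubated 1 hr after 23 hr of treatment.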
# [5] = Caspase-3/7 induction in HepG2 cells by small molecules, qHTS cell viability counter screen (AID 1346981); further: on the % scale 0 is the no-effect control and ±100 the full control effect; nearly all actives have a fitted effect of over 30% in size
# Method in brief: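 Treatment of HepG2 cells with DMSO-delivered compounds ran 16 hr at 37 C following a 5-hr pre-incubation of 2,000 cells/well. CellTiter-Fluor fluorescence, read after 1 hr, served as the viability measure in a qHTS format.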
# [6] = qHTS assay to identify aromatase inhibitors - cell viability counter screen (AID 743084); settings: MCF-7 aro ERE viability, CellTiter-Fluor, 24 h; activity change, negative = cytotoxicity: at 70.3 µM (top of the series);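 further: cells stimulated with testosterone during compound exposure; nearly all actives have a fitted effect of over 55% in size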; further: potency means the concentration at half of the fitted maximal effect
# [7] = qHTS RealTime-Glo MT Cell Viability Assay in HepG2 cells - 8 hour (AID 1224873); further: nearly all actives have a fitted effect of over 55% in size; further: potency means the concentration at half of the fitted maximal effect
# Method in brief: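 HepG2 cells mixed with RealTime-Glo MT reagents (NanoLuc plus cell-permeant prosubstrate) were seeded at 600 cells/well, incubated 5 h at 37 C/5% CO2, then pinned with compounds in DMSO; nonlytic luminescence tracked viability during 40 h treatment.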
# [8] = target: Thyrotropin receptor (Homo sapiens) (UniProt P16473); experiment: qHTS assay to identify small molecule antagonists of the thyroid stimulating hormone receptor (TSHR) signaling pathway (AID 1259385; calls by dose curve; further: nearly all actives have a fitted effect of over 20% in size; further: potency means the concentration at half of the fitted maximal effect); settings: TSHR-HEK293 cAMP HTRF, TSH-stimulated antagonist mode; activity change, negative = inhibition: at 92.4 µM (top of the series)
# Method in brief: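 TSHR-HEK293 cells were plated and held 18 h at 37C/5% CO2, then given compound plus Ro20-1724 and stimulated with TSH at 1.5 ng/mL final. After 30 min at room temperature, cAMP was detected with cAMP-d2/anti-cAMP-cryptate (1 h) by fluorescence.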
# [9] = A CellTox Green Cytotoxicity Assay to monitor cytotoxicity in HEK293 cells - 16 hour (AID 1224888); further: potency means the concentration at half of the fitted maximal effect; nearly all actives have a fitted effect of over 35% in size
# Method in brief: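 Tox21 screen in HEK293: membrane-impermeant cyanine dye fluoresces on binding dead-cell DNA; compound pinned 5 h post-seeding, plates held at 37 C, signal read repeatedly through 40 h.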
# [10] = Human pregnane X receptor (PXR) small molecule agonists, qHTS cell viability counter screen (AID 1346977); further: nearly all actives have a fitted effect of over 50% in size; further: potency means the concentration at half of the fitted maximal effect
# Method in brief: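 Cytotoxicity counter screen run in the same wells as the PXR luciferase assay, using PXR-Luc HepG2 cells in charcoal-stripped serum medium. Viability: CellTiter-Fluor fluorescence after 24hr compound treatment.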
# [11] = qHTS assay to identify small molecule agonists of the peroxisome proliferator-activated receptor delta (PPARd) signaling pathway - cell viability counter screen (AID 743211); settings: PPARd-bla HEK293H viability, CellTiter-Glo luminescence, 17 h; activity change, negative = cytotoxicity: at 62.6 µM (top of the series); further: potency means the concentration at half of the fitted maximal effect; nearly all actives have a fitted effect of over 55% in size
# Method in brief: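 Counter screen for cytotoxicity run in parallel with the PPARd reporter screen. Beta-lactamase reporter HEK293H cells exposed to compounds 17 h; ATP-based CellTiter-Glo luminescence quantified viability.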
# [12] = qHTS assay to identify small molecule antagonists of the estrogen related receptor signaling pathway with the pleiotropic PPARgamma coactivator (PGC) from Tox21 10K library (AID 1224841; call rule not given here; further: actives are mostly falling curves and most rising ones were filed inactive; nearly all actives have a fitted effect of over 50% in size; further: potency means the concentration at half of the fitted maximal effect)
# Method in brief: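 Test chemicals dissolved in DMSO were applied to pre-incubated (6 h) PGC/ERR cells at 2,000 cells/well for an 18 h, 37 C treatment; reporter luminescence was then read using One-Glo.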
# [13] = qHTS assay to identify small molecule antagonists of the androgen receptor (AR) signaling pathway - cell viability counter screen (AID 743033; further: nearly all actives have a fitted effect of over 45% in size; further: potency means the concentration at half of the fitted maximal effect)
# [14] = Caspase-3/7 induction in CHO-K1 cells by small molecules, qHTS cell viability counter screen (AID 1346979); further: nearly all actives have a fitted effect of over 35% in size; further: potency means the concentration at half of the fitted maximal effect
# Method in brief: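 Cytotoxicity counter screen run in parallel with the caspase-3/7 assay: CHO-K1 cells, 16hr compound treatment at 37C, then CellTiter-Fluor for 1hr before fluorescence reading.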
# [15] = qHTS assay to identify small molecule antagonists of the estrogen related receptor (ERR) signaling pathway from Tox21 library (AID 1224848); further: on the % scale 0 is the no-effect control and ±100 the full control effect; nearly all actives have a fitted effect of over 50% in size
# Method in brief: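 Tox21 10K compounds in DMSO tested for ERR pathway antagonism in NTP's ERR cell line; 18 h, 37 C exposure; ONE-Glo luminescence.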
# [16] = target: Vitamin D3 receptor (Homo sapiens) (UniProt P11473); experiment: qHTS assay to identify small molecule agonists of the vitamin D receptor (VDR) signaling pathway (AID 743222; calls by dose curve; further: on the % scale 0 is the no-effect control and ±100 the full control effect); settings: HEK293T VDR-UAS-bla, beta-lactamase FRET ratio, 16 h; activation: at 63.5 µM (top of the series) unless noted
# Method in brief: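 Using LiveBLAzer B/G FRET detection, agonism was scored in VDR-bla cells exposed overnight (16 h, 37C) to DMSO-dissolved compounds; substrate incubation was 2 h at room temperature.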
# [17] = target: Aryl hydrocarbon receptor (Homo sapiens) (UniProt P35869); experiment: qHTS assay to identify small molecule that activate the aryl hydrocarbon receptor (AhR) signaling pathway (AID 743085); further: potency means the concentration at half of the fitted maximal effect; nearly all actives have a fitted effect of over 15% in size
# Method in brief: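 Compounds were tested in HepG2 hepatocellular carcinoma cells harbouring a stably integrated luciferase gene under control of 20 DREs. Increased reporter signal after 24 h treatment at 37C was taken as AhR activation.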
# [18] = qHTS assay to identify small molecule agonists of the sonic hedgehog signaling (Shh) pathway - cell viability counter screen (AID 1259366); further: on the % scale 0 is the no-effect control and ±100 the full control effect; nearly all actives have a fitted effect of over 50% in size
# Method in brief: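 Cells are plated at 2,000 per well and left 4hr at 37C, 5% CO2 before compound addition. After 23hr of treatment, CellTiter-Fluor reagent is added for 1hr at 37C and fluorescence is measured.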
# [19] = target: Androgen receptor (Homo sapiens) (UniProt P10275); experiment: qHTS assay to identify small molecule antagonists of the androgen receptor (AR) signaling pathway (AID 743035; active means well fitted inhibition curve with a large enough effect in the signal ratio in the repeat runs, not every such curve was filed as active; inconclusive means weak or mixed curves, or effect the other way; inactive means no such curve, though single readings can be large or run the other way; the % refers to the signal ratio; further: potency means the concentration at half of the fitted maximal effect); settings: HEK293 AR-UAS-bla, R1881-stimulated, beta-lactamase FRET, 16 h; activity change, negative = inhibition: at 58.5 µM (top of the series) unless noted
# Method in brief: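 R1881 agonist challenge of a HEK293 UAS-beta-lactamase AR reporter line in the presence of compound (16 h, 37C); signal taken as FRET fluorescence after 2 h with LiveBLAzer B/G substrate at room temperature.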
# [20] = target: Nuclear receptor subfamily 1 group I member 3 (Homo sapiens) (UniProt Q14994); experiment: qHTS assay to identify small molecule agonists of the constitutive androstane receptor (CAR) signaling pathway (AID 1224839); further: potency means the concentration at half of the fitted maximal effect; nearly all actives have a fitted effect of over 15% in size
# Method in brief: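 Cells were plated and incubated 4 hrs, then dosed with compounds at 15 concentrations. PK11195 was added to 0.75 uM final. After 24 hrs at 37 C, luciferase luminescence was measured.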
# Tags describe the fitted curve by direction and shape.
# Sequence of UniProt P03372 (P03372 whole entry, looked up): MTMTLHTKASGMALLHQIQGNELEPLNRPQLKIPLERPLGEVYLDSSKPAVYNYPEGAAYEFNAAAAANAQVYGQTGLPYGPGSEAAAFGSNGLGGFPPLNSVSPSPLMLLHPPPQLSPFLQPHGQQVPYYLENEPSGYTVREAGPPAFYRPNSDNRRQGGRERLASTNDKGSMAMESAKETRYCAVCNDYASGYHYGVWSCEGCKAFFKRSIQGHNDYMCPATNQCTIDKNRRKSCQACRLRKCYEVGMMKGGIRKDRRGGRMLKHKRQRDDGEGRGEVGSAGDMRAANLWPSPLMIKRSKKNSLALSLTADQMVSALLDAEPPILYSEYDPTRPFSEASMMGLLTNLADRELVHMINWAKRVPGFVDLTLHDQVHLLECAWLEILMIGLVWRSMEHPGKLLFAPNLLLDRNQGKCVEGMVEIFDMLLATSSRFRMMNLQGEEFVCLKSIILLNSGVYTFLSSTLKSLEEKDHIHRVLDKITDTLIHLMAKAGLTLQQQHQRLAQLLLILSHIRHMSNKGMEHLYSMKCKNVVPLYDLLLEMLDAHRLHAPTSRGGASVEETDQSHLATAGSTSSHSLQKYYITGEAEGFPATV
# Sequence of UniProt P11473 (P11473 whole entry, looked up): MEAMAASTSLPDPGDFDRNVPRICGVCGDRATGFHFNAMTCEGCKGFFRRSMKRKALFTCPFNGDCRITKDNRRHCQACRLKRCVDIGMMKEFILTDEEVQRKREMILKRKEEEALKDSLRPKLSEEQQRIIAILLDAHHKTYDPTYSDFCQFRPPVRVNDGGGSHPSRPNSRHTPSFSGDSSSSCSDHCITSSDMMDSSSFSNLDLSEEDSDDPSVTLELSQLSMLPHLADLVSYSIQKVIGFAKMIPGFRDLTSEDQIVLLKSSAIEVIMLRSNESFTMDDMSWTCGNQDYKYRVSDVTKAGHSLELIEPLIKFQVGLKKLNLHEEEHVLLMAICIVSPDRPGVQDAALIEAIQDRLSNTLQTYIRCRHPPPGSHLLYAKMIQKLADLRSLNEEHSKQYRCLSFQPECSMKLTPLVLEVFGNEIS
# Sequence of UniProt Q03181 (Q03181 whole entry, looked up): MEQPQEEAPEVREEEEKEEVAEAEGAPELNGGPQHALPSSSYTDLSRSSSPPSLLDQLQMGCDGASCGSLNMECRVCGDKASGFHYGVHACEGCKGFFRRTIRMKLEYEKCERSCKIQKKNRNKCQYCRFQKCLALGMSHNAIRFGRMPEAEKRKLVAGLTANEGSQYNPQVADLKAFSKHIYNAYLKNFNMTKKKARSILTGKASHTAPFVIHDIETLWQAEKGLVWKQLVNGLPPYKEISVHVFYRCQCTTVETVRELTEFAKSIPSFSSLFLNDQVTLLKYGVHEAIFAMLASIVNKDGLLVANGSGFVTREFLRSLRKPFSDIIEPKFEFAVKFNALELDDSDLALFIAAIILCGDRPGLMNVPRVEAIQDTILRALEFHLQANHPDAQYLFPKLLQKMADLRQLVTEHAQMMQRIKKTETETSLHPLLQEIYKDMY
# Sequence of UniProt P16473 (P16473 whole entry, looked up): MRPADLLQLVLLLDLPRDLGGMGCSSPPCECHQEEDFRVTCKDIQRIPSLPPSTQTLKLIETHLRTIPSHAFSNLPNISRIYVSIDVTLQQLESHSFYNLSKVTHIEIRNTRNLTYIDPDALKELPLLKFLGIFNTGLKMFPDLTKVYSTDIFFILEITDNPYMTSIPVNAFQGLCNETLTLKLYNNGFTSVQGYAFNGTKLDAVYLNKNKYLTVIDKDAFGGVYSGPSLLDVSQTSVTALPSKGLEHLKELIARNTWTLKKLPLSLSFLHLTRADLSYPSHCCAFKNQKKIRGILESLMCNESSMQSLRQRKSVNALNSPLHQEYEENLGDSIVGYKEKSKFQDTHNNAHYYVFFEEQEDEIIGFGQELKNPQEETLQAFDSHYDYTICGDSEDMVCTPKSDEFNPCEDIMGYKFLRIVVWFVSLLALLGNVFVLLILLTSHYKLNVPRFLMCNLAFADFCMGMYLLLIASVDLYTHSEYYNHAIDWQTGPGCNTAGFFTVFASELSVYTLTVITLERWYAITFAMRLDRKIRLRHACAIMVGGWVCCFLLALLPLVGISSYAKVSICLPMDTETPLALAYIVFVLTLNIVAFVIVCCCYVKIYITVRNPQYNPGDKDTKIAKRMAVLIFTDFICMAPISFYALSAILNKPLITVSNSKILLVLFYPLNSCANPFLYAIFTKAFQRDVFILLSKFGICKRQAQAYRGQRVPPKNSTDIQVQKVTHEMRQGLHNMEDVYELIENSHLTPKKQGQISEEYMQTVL
# Sequence of UniProt P10275 (P10275 whole entry, looked up): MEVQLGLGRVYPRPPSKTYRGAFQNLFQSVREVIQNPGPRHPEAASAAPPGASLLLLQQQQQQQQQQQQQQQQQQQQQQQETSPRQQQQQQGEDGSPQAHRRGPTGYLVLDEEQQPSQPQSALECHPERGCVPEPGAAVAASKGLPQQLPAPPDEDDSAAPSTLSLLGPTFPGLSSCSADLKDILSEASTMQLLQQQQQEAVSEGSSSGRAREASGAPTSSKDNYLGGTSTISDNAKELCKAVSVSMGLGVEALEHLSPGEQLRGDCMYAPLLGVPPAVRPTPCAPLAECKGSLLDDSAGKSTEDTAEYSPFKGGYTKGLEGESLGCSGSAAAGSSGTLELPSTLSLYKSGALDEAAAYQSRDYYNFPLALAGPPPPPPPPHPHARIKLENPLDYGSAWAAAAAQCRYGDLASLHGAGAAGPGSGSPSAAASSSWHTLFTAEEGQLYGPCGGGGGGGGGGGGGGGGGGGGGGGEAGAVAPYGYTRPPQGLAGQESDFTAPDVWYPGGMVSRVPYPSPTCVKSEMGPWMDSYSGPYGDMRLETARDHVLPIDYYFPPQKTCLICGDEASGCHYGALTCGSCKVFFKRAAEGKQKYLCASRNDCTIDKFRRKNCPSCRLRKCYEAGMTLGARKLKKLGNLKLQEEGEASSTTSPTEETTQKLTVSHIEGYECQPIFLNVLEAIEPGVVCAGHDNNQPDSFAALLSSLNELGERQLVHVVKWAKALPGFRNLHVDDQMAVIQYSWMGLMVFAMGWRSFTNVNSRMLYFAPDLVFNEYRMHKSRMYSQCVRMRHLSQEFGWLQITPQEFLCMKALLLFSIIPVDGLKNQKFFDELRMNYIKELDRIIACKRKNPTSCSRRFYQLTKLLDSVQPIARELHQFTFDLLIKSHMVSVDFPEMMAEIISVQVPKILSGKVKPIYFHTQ
# Sequence of UniProt P35869 (P35869 whole entry, looked up): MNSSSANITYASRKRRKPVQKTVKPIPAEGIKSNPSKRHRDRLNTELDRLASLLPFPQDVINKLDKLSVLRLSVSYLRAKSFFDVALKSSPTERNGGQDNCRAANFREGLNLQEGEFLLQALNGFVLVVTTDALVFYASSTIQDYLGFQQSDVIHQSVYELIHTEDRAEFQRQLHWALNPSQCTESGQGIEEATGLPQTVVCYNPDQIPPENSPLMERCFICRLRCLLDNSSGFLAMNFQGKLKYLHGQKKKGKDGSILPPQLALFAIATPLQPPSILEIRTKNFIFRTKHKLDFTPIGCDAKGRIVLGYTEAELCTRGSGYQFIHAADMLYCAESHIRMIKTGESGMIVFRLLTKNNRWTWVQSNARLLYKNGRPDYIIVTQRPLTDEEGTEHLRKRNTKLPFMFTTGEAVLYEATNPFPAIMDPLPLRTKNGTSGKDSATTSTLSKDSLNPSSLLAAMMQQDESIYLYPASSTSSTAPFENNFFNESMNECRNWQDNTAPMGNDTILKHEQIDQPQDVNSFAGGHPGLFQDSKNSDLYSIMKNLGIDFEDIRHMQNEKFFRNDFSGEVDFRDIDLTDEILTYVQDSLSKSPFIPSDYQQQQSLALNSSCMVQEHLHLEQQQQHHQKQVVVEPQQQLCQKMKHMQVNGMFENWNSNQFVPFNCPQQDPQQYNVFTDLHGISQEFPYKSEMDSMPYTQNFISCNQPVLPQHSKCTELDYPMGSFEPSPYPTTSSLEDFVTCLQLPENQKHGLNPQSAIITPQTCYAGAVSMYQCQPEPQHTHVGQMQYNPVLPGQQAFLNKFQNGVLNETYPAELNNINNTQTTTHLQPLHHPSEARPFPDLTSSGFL
# Sequence of UniProt Q14994 (Q14994 whole entry, looked up): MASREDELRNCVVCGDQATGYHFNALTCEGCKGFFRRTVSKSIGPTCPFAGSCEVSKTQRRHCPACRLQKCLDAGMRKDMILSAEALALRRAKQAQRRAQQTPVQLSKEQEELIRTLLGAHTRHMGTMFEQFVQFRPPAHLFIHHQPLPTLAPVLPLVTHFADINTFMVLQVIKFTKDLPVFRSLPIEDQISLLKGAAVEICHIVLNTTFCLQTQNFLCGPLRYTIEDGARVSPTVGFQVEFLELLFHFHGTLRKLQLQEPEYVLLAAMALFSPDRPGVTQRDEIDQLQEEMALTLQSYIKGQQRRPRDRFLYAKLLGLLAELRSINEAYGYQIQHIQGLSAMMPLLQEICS
structure (smiles),measurement,setting,value
ClC(Cl)(Cl)c1ccccc1,"activity, negative = inhibition",[1],inconclusive: 22.7%
same,activation,[2],inconclusive: 7.66%
CC1CN1P(=O)(N1CC1C)N1CC1C (stereo not drawn),Potency,[3],inactive
same,Potency,[4],inactive
CC(C)O.CC(C)O.OCCN(CCO)CCO.OCCN(CCO)CCO.[Ti],Potency,[5],inactive
Cc1cc(Cl)ccc1O,Potency,[6],inactive
CCCCOC(=O)[C@@H](C)Oc1ccc(Oc2ccc(C#N)cc2F)cc1,"activity, negative = inhibition",[1],inconclusive: -18%
same,Potency,[7],"inconclusive [falling, partial curve, poor fit]"
same,Potency,[8],"inconclusive [falling, partial curve]"
CC(Cl)CN(C)C (stereo not drawn),Potency,[9],"inconclusive [activator, single point]"
Nc1c(Oc2ccccc2)cc(O)c2c1C(=O)c1ccccc1C2=O,Potency,[4],"inconclusive [cytotoxic, partial curve, poor fit]"
same,Potency,[10],"inconclusive [cytotoxic, partial curve]"
CN1CCC(N(Cc2ccccc2)c2ccccc2)CC1,Potency,[11],active: 26.6 µM
same,Potency,[10],"inconclusive [cytotoxic, single point]"
CC(C)COC(=O)c1ccccc1C(=O)OCC(C)C,"activity change, negative = inhibition",[3],inconclusive: -18.9%
CC(C)C(=O)Cl,Potency,[12],"inconclusive [falling, single point]"
NNCCO,Potency,[13],inactive
same,Potency,[1],inactive
same,Potency,[14],inactive
CCCCc1ccc(O)cc1,Potency,[2],inactive
COc1cc(Cl)c(OC)cc1Cl,Potency,[15],inactive
COC(=O)C1=CCCN(C)C1,Potency,[16],inactive
Brc1ccc(Br)cc1,Potency,[7],inactive
CCC(=O)C(CCN(C)C)(c1ccccc1)c1ccccc1,Potency,[10],"inconclusive [cytotoxic, partial curve, poor fit]"
CCOC(=O)N(C)C(=O)CSP(=S)(OCC)OCC,Potency,[13],"inconclusive [cytotoxic, partial curve, poor fit]"
same,Potency,[6],inactive
same,Potency,[17],active: 15.4 µM
same,Potency,[11],"inconclusive [cytotoxic, partial curve, poor fit]"
same,Potency,[16],inactive
OCC(O)CCl (stereo not drawn),Potency,[7],inactive
same,Potency,[18],inactive
same,Potency,[14],inactive
N[C@@H](Cc1ccc(Oc2cc(I)c(O)c(I)c2)c(I)c1)C(=O)O,Potency,[7],inactive
CCCOc1nn(C(=O)NS(=O)(=O)c2ccccc2C(=O)OC)c(=O)n1C,Potency,[13],"inconclusive [cytotoxic, partial curve, poor fit]"
same,Potency,[19],inactive
O=C1CN2CCOC2(c2ccccc2Cl)c2cc(Cl)ccc2N1 (stereo not drawn),Potency,[11],"inconclusive [rising, partial curve, poor fit]"
same,Potency,[16],inactive
same,Potency,[20],"inconclusive [activator, partial curve]"
same,Potency,[8],inactive
CCNc1nc(Cl)nc(NC(C)C)n1,Potency,[5],inactive
O=C(O)C(F)(F)C(F)(F)C(F)(F)C(F)(F)C(F)(F)C(F)(F)F,activation,[2],inconclusive: 8.65%
Cc1ccc(S(=O)(=O)N[C@@H](CCCCN)C(=O)CCl)cc1,Potency,[13],"inconclusive [cytotoxic, partial curve]"
same,Potency,[19],active: 21.3 µM
same,Potency,[3],"inconclusive [falling, partial curve, poor fit]"
same,Potency,[6],"inconclusive [cytotoxic, partial curve, poor fit]"
same,Potency,[15],inactive
same,Potency,[10],inactive
same,Potency,[14],"inconclusive [cytotoxic, single point]"
COc1cnc(OC)n2nc(NS(=O)(=O)c3c(OCC(F)F)cccc3C(F)(F)F)nc12,Potency,[12],inactive
CC(Cc1ccc(O)cc1)NCC(O)c1cc(O)cc(O)c1 (stereo not drawn),Potency,[1],inactive
N#CN=C(N)N,Potency,[3],inactive
same,Potency,[11],"inconclusive [cytotoxic, full curve, poor fit]"
CN(N=O)C(N)=O,Potency,[4],inactive
